According to the supplement of paper PMC5499739:
The full ranking holds about 16,000 sequences; the median of “Z-score” is about -0.37, and the highest 2% start at about 3.1. The list shows a part of the results.

tested on: RBM10 RRM1-ZnF-RRM2 (GST-tagged construct); assay: RNAcompete 7-mer binding Z-score; higher = stronger binding preference
Procedure, shortened: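 In 1 ml Hepes pH 7.8 buffer with KCl, NaCl, glycerol, DTT, BSA and glutathione Sepharose beads, GST-tagged RBM10 constructs (20 pmol) were incubated for 30 min at 4°C with 1.5 nmol of a designed pool of 241 399 RNAs up to 41 nt. Four 2-min washes at 4°C followed, and bound RNA was detected by microarray hybridisation. Heptamer motif enrichment was expressed as a one-sided Z-score across probes containing each motif.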

Row | Sequence | RNAcompete 7-mer binding Z-score
1 | UAUCUUC | -0.632
2 | GCCCCAC | -0.646
3 | ACCUGUG | -0.668
4 | UAGUAAC | -0.38
5 | GCUUUUA | -0.723
6 | UUCCGAG | -0.621
7 | AUUAAUA | -0.544
8 | GCCAGCU | -0.413
9 | GACAUCC | -0.683
10 | GGGCUAC | 1.09
11 | UAGCUGG | 0.661
12 | AAUAGAC | -0.0998
13 | CGACAGA | -0.151
14 | ACACGAC | -0.508
15 | CCGUAUA | -0.65
16 | AUAGGCA | 1.38
17 | GUCAGCA | 0.213
18 | AGCGCAU | -0.442
19 | CGUCUCG | -0.653
20 | UCUGCUA | -0.894
21 | AGCUAAU | -0.453
22 | AGCACCA | -0.384
23 | GCCAUCC | -0.788

Row | Sequence | RNAcompete 7-mer binding Z-score
24 | CGAGUUG | 0.0677
25 | GAAUAAA | -0.00148
26 | AACGGCG | 0.836
27 | AAGGUAG | 3.82
28 | UGCGGAU | 0.228
29 | CUAUGGA | 0.119
30 | GUAUGCU | -0.195
31 | UCGCCUU | -0.934
32 | CAAGCUA | -0.398
33 | GUCUCUG | -0.544
34 | GACAAUC | -0.46
35 | UCCUACG | -0.65
36 | UCUCCUG | -0.661
37 | GAUGCUU | -0.792
38 | AUGUACG | 0.323
39 | GGUUCUG | 0.221
40 | GUGAGAC | 1.04
41 | AAUCCUU | -0.821
42 | UCGGUGC | 0.162
43 | GUGGUGC | 1.68
44 | AUGCAGG | 1.55
45 | UACGGGG | 2.8
46 | CCGUAAC | -0.519

Row | Sequence | RNAcompete 7-mer binding Z-score
47 | GCGACGU | 0.162
48 | CAUCAAA | -0.686
49 | UUCUUCA | -0.828
50 | GCCAAUU | -0.606
51 | AUAGGCC | 0.133
52 | CGUUACG | -0.253
53 | GGAGUCG | 1.6
54 | GCUACGA | -0.5
55 | AUGCGUC | -0.566
56 | UGCUAAG | -0.282
57 | CGUCUCU | -0.672
58 | GCUUCAU | -0.744
59 | GAUAACA | 0.184
60 | CGGCAAC | -0.264
61 | UCUAUCA | -0.715
62 | CUUUUCG | -0.97
63 | CGCUAUA | -0.551
64 | GUAGAAC | 0.556
65 | UGCACGC | -0.486
66 | CCCCCUC | -0.548
67 | GCUCAGU | -0.573
68 | AGACGAA | 0.505
69 | CGAUGGU | 0.894

Row | Sequence | RNAcompete 7-mer binding Z-score
70 | UCUAACU | -0.697
71 | GAACAGU | 0.0859
72 | AUACUCC | -0.865
73 | AAUGUAU | -0.14
74 | UAACCCC | -0.573
75 | AAGAGUG | 1.37
76 | UGCUAGU | -0.511
77 | CCCCGAA | -0.592
78 | UAAUCUC | -0.719
79 | UUUUCGG | -0.267
80 | GCUAAUG | -0.103
81 | UUGGAGA | 1.11
82 | AUUCGUU | -0.562
83 | UGGAUAC | 1.45
84 | UCCCAAG | -0.551
85 | GUGCGGC | 0.833
86 | AUUUGCC | -0.897
87 | GCGCUUC | -0.726
88 | CCGGUAA | 0.0896
89 | GUUACCG | 0.0131
90 | UCCGGCC | -0.763
91 | AAUUGGG | 2.6
92 | UAGUGAA | 0.691

Row | Sequence | RNAcompete 7-mer binding Z-score
93 | CCACCGG | -0.322
94 | UGCGUUC | -0.646
95 | ACGACUG | -0.402
96 | UACACUC | -0.595
97 | GUAGCCC | -0.442
98 | AUCUUGG | -0.311
99 | GUUCAUU | -0.424
100 | UCGGAGU | 0.257
101 | AGGACUG | 0.304
102 | GAGUACU | -0.296
103 | UUGCCAG | -0.479
104 | UGGUUUU | 0.443
105 | GAGCUUC | -0.715
106 | CGCCCAG | -0.632
107 | UCCCGCG | -0.632
108 | CCCUCGG | -0.511
109 | AGCCCGU | -0.941
110 | UCGGUUG | 0.286
111 | GGUCCUA | -0.468
112 | UUCCGCA | -0.788
113 | ACCUCAU | -0.73
114 | UCAUUAA | -0.3
115 | AGCAGGC | 0.807

Row | Sequence | RNAcompete 7-mer binding Z-score
116 | CAGAAGA | 0.159
117 | GUACAGC | 0.304
118 | GGUAAUG | 2.79
119 | CAAAAAA | -0.293
120 | UUAAUGC | -0.697
121 | CGCAGAA | 0.162
122 | UCUGAUC | -0.876
123 | ACAAGCU | -0.639
124 | UCGGUCA | -0.46
125 | CGCCUCG | -0.635
126 | GUAAGGA | 3.28
127 | CGCUUCG | -0.697
128 | GCGAUGG | 2.03
129 | CACUGAU | -0.632
130 | CGAUUCU | -0.836
131 | AGCUCUA | -0.744
132 | UUGGCGG | 1.48
133 | AUUGCGC | -0.439
134 | GUGAUUA | 0.275
135 | CGUCAAU | -0.599
136 | CUACAGA | -0.723
137 | AGUGUGG | 2.64
138 | UUCUAUU | -0.821

Row | Sequence | RNAcompete 7-mer binding Z-score
139 | CACACCC | -0.697
140 | GUGGCUG | 0.72
141 | CGGAAUG | 1.33
142 | UCGAGUC | -0.431
143 | UCCUGGG | 0.341
144 | UCUGUCC | -0.81
145 | GAAGGGA | 4.75
146 | CCAGUUG | -0.653
147 | UCCGUUC | -0.73
148 | AGUGGGU | 3.35
149 | GGUUGAC | 1.02
150 | CCUACAA | -0.774
151 | AAGCUCC | -0.741
152 | UCCUUAA | -0.715
153 | CGUGCUG | -0.26
154 | CUAUAGA | -0.577
155 | AGGCUAG | 0.406
156 | UAAUAGU | -0.0925
157 | AGCUGAU | -0.227
158 | UCGUUAA | -0.566
159 | GCAAUUC | -0.457
160 | UACCGCU | -0.843
161 | GAUGGUA | 2.46

Row | Sequence | RNAcompete 7-mer binding Z-score
162 | CAGGAGA | 2.02
163 | CCCGAGA | -0.57
164 | GAACAAA | 0.235
165 | AUAUGGA | 1.68
166 | GCACUUG | -0.581
167 | ACCAAAG | 0.0422
168 | AUGUGAC | 0.239
169 | CGUAAGA | -0.5
170 | CUCGAUG | -0.435
171 | GAGGCCA | 0.0495
172 | CACGCGU | -0.311
173 | AUUCGCU | -0.817
174 | CUACAAA | -0.664
175 | GGCUACC | -0.213
176 | GAACCGC | -0.635
177 | CAGCUUA | -0.741
178 | UGAUGAA | 0.111
179 | CCCACAC | -0.672
180 | CUUAAGC | -0.89
181 | CUGGUCU | -0.551
182 | GUUCUAG | -0.358
183 | GGCGAUU | 0.385
